Measurements as given in PubChem BioAssay AID2546 (National Center for Advancing Translational Sciences (NCATS), 2010).
Screen size: about 310,000 compounds; about 11,000 (3.5%) were called active. Inconclusive results, whose numbers are uncertain, are shown with a selection of clear calls. Calls come from the whole dose curve; as a rule, active = well fitted inhibition curve with a large enough effect; inconclusive = small, poorly fitted or top-dose-only effect, or effect the other way; inactive = flat fitted curve, though single readings scatter. Potencies of inconclusive entries are left out as doubtful fits.

test: VP16 counterscreen qHTS for inhibitors of ROR gamma transcriptional activity; settings: Drosophila S2 Gal4-VP16 UAS-luciferase, luminescence, 20 h; series mostly up to 53.6 µM;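 note: Gal4-VP16 expression switched on by copper sulfate through the metallothionein promoter; nearly all actives have a fitted effect of over 50% in size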
Description: NIH Molecular Libraries Probe Production Network [MLPCN]
NIH Chemical Genomics Center [NCGC]
Assay Provider: Dan Littman, New York University
The retinoic acid-related orphan receptor (ROR) gamma is a transcription factor that has a central role in the differentiation of Th17 cells, a subset of T helper cells that secrete the inflammatory cytokines IL-17, IL-17F, and IL-22. Th17 cells have been implicated in graft versus host disease, autoimmune disease and asthma. ROR gamma is induced in naive T helper cells in the presence of TGF-beta combined with IL-6, IL-21, or IL-23, and thereafter directs the expression of the Th17 lineage cytokines. To identify nonspecific inhibitors, a Drosophila Schneider cell line was stably transfected with two vectors: a gene expressing a fusion of the Gal4 DNA binding domain and VP16 transactivation domain under the control of the metallothionine promoter and a Photinus luciferase reporter regulated by the Gal4 binding site enhancer, UAS. […] Small molecule inhibitors that inhibit components common to the RORgt and VP16 assays, such as the Gal4 DNA binding domain or the UAS luciferase reporter, will be active in both assays and thus scored as nonspecific.
For screening, 600 cells in 4 uL/well were dispensed into white solid 1536-well plates (Grenier) using a solenoid-based dispenser. Following transfer of 23 nL compound or DMSO vehicle by a pin tool, the plates were incubated 1 hr at ambient temperature, and 1 uL/well copper sulfate (700 uM final concentration) was added. The plates were centrifuged 15 s at 1000 RPM and incubated 20 hr at ambient temperature. After addition of 1.5 uL Photinus luciferase detection reagent, the plates were incubated 10 min at ambient temperature and then read by a ViewLux (Perkin Elmer) to detect luminescence.
Potency is the fitted concentration of half-maximal effect; tags give direction and shape of the fitted curve.

| Compound | Potency |
| --- | --- |
| COc1cc(NC(=O)C/C(C)=N/NC(=O)Cc2ccc(Cl)cc2)c(OC)cc1Cl | inconclusive [inhibitor, single point] |
| Cc1ccc(-n2[nH]c(C)c(/C=N/c3cccc(C)n3)c2=O)cc1 | inactive |
| NNC(=O)c1cccc(COc2cccc(Br)c2)c1 | inconclusive [inhibitor, single point] |
| N#C/C(=C\c1cc2c(cc1Br)OCO2)c1ccc(C(=O)O)cc1 | inactive |
| Cc1ccc(-c2cc3cccc[n+]3cc2-c2ccc(C)cc2)cc1 | active: 12.6 µM |
| CCCCCc1ccc(-c2ccc(C(=O)O)cc2)nc1 | inconclusive [inhibitor, partial curve, poor fit] |
| CCN(CC)C(=O)c1[nH]cnc1C(=O)N[C@@H](CC(C)C)C(=O)OC(C)(C)C | inconclusive [inhibitor, single point] |
| CCOC(=O)N1CCC(N2C(=O)c3ccccc3C2Nc2ccc(Cl)cn2)CC1 (configuration not stated) | inactive |
| Cc1ccc(C(CCNC(C)c2cccs2)c2ccco2)cc1 (configuration not stated) | inactive |
| Cn1/c(=N/N=C/c2ccccn2)sc2ccccc21 | inconclusive [inhibitor, single point] |
| CCCc1ccc(OCc2nc(-c3ccc(NC(=O)c4ccco4)cc3)no2)cc1 | inactive |
| CCn1c(SCC(=O)Nc2nc(-c3ccccc3)cs2)nnc1-c1ccccc1O | inconclusive [inhibitor, single point] |
| Cc1ccc(C(=O)N/N=C2\CCSC2)cc1[N+](=O)[O-] | inconclusive [inhibitor, single point] |
| Cc1occc1C(=O)N/N=C/c1c(O)ccc2ccccc12 | active: 17.8 µM |
| CS(=O)(=O)N1CCN(c2ccccc2NC(=O)c2cc3ccccc3o2)CC1 | inactive |
| COCCN1CCN(C(=O)c2ccc3nc(Cc4ccc(OC)c(OC)c4)oc3c2)CC1 | active: 7.08 µM |
| C=CCCCCCCCCCBr | inactive |
| CC1(C)SC(=S)N(/N=C/c2ccccc2)C1N(O)C(=O)Nc1ccc([N+](=O)[O-])cc1 (configuration not stated) | active: 3.55 µM |
| COc1ccc2[nH]c(=O)c(CN(C3CCCCC3)C(c3nnnn3Cc3ccco3)C(C)C)cc2c1 (configuration not stated) | inactive |
| Cc1nn(-c2ccccc2)c2c1C1(C(=O)N(C(C)C)c3ccccc31)C(C#N)=C(N)O2 (configuration not stated) | inconclusive [inhibitor, single point] |
| Cc1cc(F)ccc1S(=O)(=O)N(C(=O)c1ccncc1)c1ccc(OC(=O)c2ccncc2)cc1 | inactive |
| O=C(CSc1nnc(C2COc3ccccc3O2)o1)Nc1nccs1 (configuration not stated) | active: 22.4 µM |
